We go through 90 compounds from PubChem BioAssay AID463173 (ICCB-Longwood Screening Facility, Harvard Medical School, 2010).

The campaign covered roughly 52,000 compounds. About 1,700 (3.3%) were called active. Rule as the data show it: active = survival mostly below about 52% (no sharp cut-off); inactive = mostly above about 56%. The list shows a part of the results.

The subject of this test is Wild type. In words: S. aureus survival, RN4220 and DeltatarO strains – OD600, teichoic acid synthesis inhibitors, primary screen (AID 463173). Conditions: S. aureus RN4220 wild type/DeltatarO growth, OD600, 18 h, active compounds read low, screened at 18.75 µg/mL (by protocol).
In the case of `O=c1c2ccccc2ncn1-c1ccc(F)cc1`, the survival was inactive: 107%.

In the case of `O=C(NCc1ccc(Cl)cc1)C1CCN(c2nn3cc(-c4ccc(F)cc4)nc3s2)CC1`, the survival is inactive: 78%.

Take `Cc1c(C(=O)OCCOc2ccccc2)[nH]c2c1C(=O)CC(c1ccc(C(C)(C)C)cc1)C2` (stereo not given): the survival was inactive: 78%.

For `CCn1c2c(c(=O)n3ncc(C(=O)Nc4cc(Cl)ccc4OC)c13)CN(Cc1ccc(OC)cc1)CC2`, the survival was inactive: 72%.

Regarding `CC1CN(C(=O)NCc2ccccc2)c2cc(Cl)ccc2O1` (stereo not given), the survival is inactive: 89%.

`CCCNC(=O)CCC(=O)N1Cc2cccc(OC)c2Oc2ncccc21`: the survival was inactive: 74%.

On to `COc1ccc(NC(=O)c2nc(S(C)(=O)=O)ncc2N(Cc2ccc(C)cc2)Cc2ccco2)cc1Cl`, for which the survival was inactive: 86%.

`COc1cccc(CNC(=O)c2cc(-c3ccc(Cl)s3)nc3ccccc23)c1`: the survival was inactive: 87%.

Take `COc1ccc(Cl)cc1NC(=O)c1cc(-c2ccc3c(c2)OCO3)on1`: the survival was inactive: 81%.

With `COc1ccc(C)cc1NC(=O)N1CCN(S(=O)(=O)c2ccc3c(ccn3C)c2)CC1`, the survival was inactive: 22%.

`CCCCc1cc(=O)oc2cc(C)c3c(C(C)(C)C)coc3c12`: the survival is inactive: 108%.

With `Cc1ncc(CO)c2c1Oc1nc(-c3ccc(Cl)cc3)nc(SCC(=O)N3CCCCC3)c1C2`, the survival was inactive: 79%.

As for `Cc1cccc(CSc2nc3c(sc4ccccc43)c(=O)n2CCC(=O)NC(C)C)c1`, the survival is inactive: 129%.

Take `O=C(Nc1nccs1)c1ccc(-c2ccc(Cl)cc2)o1`: the survival is inactive: 114%.

Regarding `Cc1ccc(S(=O)(=O)c2cnc(SCC(=O)Nc3cccc(Cl)c3)nc2N)cc1C`, the survival is inactive: 73%.

Take `CCCN1CC=C2C(C#N)=C(N)C(C#N)(C#N)C(c3ccc(OCC(N)=O)cc3)C2C1` (stereo not given): the survival is inactive: 99%.

Regarding `COc1ccc(C(CC(=O)O)NC(=O)c2cc3ccccc3oc2=O)cc1OC` (stereo not given), the survival was inactive: 69%.

In the case of `CSc1ccc(NC(=O)C(C)N2CCN(C)CC2)cc1` (stereo not given), the survival was inactive: 94%.

With `CCN(CC)C(=O)Cn1cc(SCC(=O)Nc2cccc(F)c2)c2ccccc21`, the survival was inactive: 111%.

For `CCOC(=O)c1cnc2c(C)cc(C)cc2c1Nc1cccc(C(=O)O)c1`, the survival was active: 23%.

Take `CCOCCCNC(=O)CN1C(=O)COc2ccc(S(=O)(=O)N3CCCCCC3)cc21`: the survival was inactive: 78%.

Regarding `Cc1[nH]c(=O)[nH]c(=O)c1NC(=O)CSc1nc2c(C)cccc2cc1C#N`, the survival was inactive: 95%.

For the compound `Oc1ccc(Nc2nc3ccccc3n3cnnc23)cc1`, the survival was inactive: 78%.

`Cc1cccc(Cn2c(=O)n(Cc3ccc(C(=O)NC4CCN(Cc5ccccc5)CC4)cc3)c(=O)c3ccccc32)c1`: the survival was inactive: 80%.

For the compound `COc1ccc2oc(=O)c(C(=O)NCCO)cc2c1`, the survival was inactive: 105%.

For `O=C(Nc1cccc2cccnc12)c1ccccc1[N+](=O)[O-]`, the survival was inactive: 72%.

On to `Cc1ccc(C2c3c(-c4cc(C)ccc4O)n[nH]c3C(=O)N2Cc2ccco2)cc1` (stereo not given), for which the survival was active: 1%.

Consider `Cc1ccc(-n2ncc(C(=O)NCCCN3CCCCC3)c2C2CCN(C(=O)OC(C)(C)C)CC2)c(C)c1`, for which the survival is inactive: 64%.

As for `Cc1ccc(NC(=O)CSc2nnc3nc(C)cc(C)n23)cc1`, the survival is inactive: 73%.

For `COc1cc(C2C(C#N)=C(N)Oc3n[nH]c(C(F)(F)F)c32)ccc1OCC(N)=O` (stereo not given), the survival was inactive: 107%.

Turning to `CC(=O)c1ccc(N2CCN(c3ccc(NC(=O)c4cccs4)cc3C(=O)O)CC2)cc1`, the survival was inactive: 74%.

Turning to `CC(C(=O)NCc1ccccc1Cl)n1ccc2cc(S(=O)(=O)N3CCCCC3)ccc21` (stereo not given), the survival was inactive: 87%.

`CCc1cccc(C)c1NC(=O)CCCn1c(=O)c2cccn2c2cccnc21`: the survival is inactive: 95%.

Take `O=C(C1c2ccccc2Oc2ccccc21)N1CCCCC1`: the survival was inactive: 103%.

Regarding `O=C(O)/C=C/c1cccc(N=NN2CCCCC2)c1`, the survival is inactive: 107%.

As for `CCOC(=O)c1ccccc1NC(=O)NC(C)c1c(-n2cccc2)sc(C)c1C` (stereo not given), the survival is inactive: 71%.

Consider `Cc1ccc(C)c(NC(=O)CN2C(=O)c3cccc4cccc2c34)c1`, for which the survival was inactive: 72%.

Turning to `CCN(CC)C(=O)c1sc(NC(=O)c2nc3ncccn3n2)c(C(=O)OC)c1C`, the survival was inactive: 131%.

Consider `Cn1c(-c2ccc3c(c2)OCO3)cnc1NCc1cc(Cl)ccc1O`, for which the survival was inactive: 112%.

For the compound `O=C(CSc1nc(-c2cccc(Cl)c2)nc2cc(=O)[nH]n12)Nc1ccccc1`, the survival is inactive: 78%.

`CCSc1nnc(C2CCCN(C(=O)NCc3ccccc3)C2)n1C` (stereo not given): the survival was inactive: 88%.

With `O=c1c2ccccc2n2c(-c3ccccc3O)nnc2n1Cc1ccc(F)cc1`, the survival was inactive: 93%.

With `Cc1cccc(Cn2ccn(Cc3ccc(Cl)cc3)c(=O)c2=O)c1`, the survival was inactive: 126%.

With `O=C(c1ccccc1Br)N(Cc1ccco1)C1CCS(=O)(=O)C1` (stereo not given), the survival was inactive: 97%.

For `CCCCCC(=O)N1c2ccccc2C(C)(c2ccccc2)CC1(C)C` (stereo not given), the survival was active: -2%.

With `CCCCOC(=O)Cc1c(C)[nH]c(=O)[nH]c1=O`, the survival was inactive: 109%.

Turning to `CCC(Sc1nc2c(sc3ccccc32)c(=O)n1CCc1ccccc1)C(=O)N(CC)CC` (stereo not given), the survival was inactive: 53%.

Regarding `O=C(N/N=C/c1ccc(-c2ccc(Cl)c(C(=O)O)c2)o1)c1ccncc1`, the survival is inactive: 109%.

As to `O=C(c1ccc2c(c1)N(Cc1ccccc1)C(=O)c1ccccc1S2(=O)=O)N1CCCC1`, the survival is inactive: 86%.

As for `COc1cccc(CCNC(=O)Cn2c(-c3cccs3)cc3ccccc32)c1`, the survival is inactive: 96%.

As to `COc1ccc(NC(=O)CN2C(=O)C(c3ccc(C(C)(C)C)cc3)=NC2(C)C)cc1Cl`, the survival was inactive: 96%.

With `Cc1ccc(C)c(N2CCN(C(=O)Nc3cn(CC(C)C)c(=O)c4ccccc34)CC2)c1`, the survival is inactive: 135%.

For the compound `COc1ccc(Cn2c(C(=O)O)c(CNCC(C)c3ccccc3)c3ccc(OC)cc32)cc1` (stereo not given), the survival was inactive: 83%.

On to `COc1ccccc1N1CCN(C(=O)C2CCN(S(=O)(=O)c3c(C)noc3/C=C/c3ccc(C)cc3)CC2)CC1`, for which the survival was inactive: 71%.

Consider `CCCCn1c(SCC(=O)Nc2cccc(OC)c2)nc2c(sc3ccccc32)c1=O`, for which the survival is inactive: 78%.

For `COc1cccc(Cn2c(=O)n(CC3CCC(C(=O)N4CCCCC4)CC3)c(=O)c3sccc32)c1` (stereo not given), the survival was inactive: 65%.

For `Cc1cccc(Cc2cnc(NC(=O)C3Cc4ccc(C)cc4C(=O)O3)s2)c1` (stereo not given), the survival was inactive: 74%.

On to `CC(C)NC(=O)CCn1c(SCc2c(F)cccc2Cl)nc2c(sc3ccccc32)c1=O`, for which the survival was inactive: 87%.

Regarding `CCOC(=O)N1CCN(Cc2nc3cc(NC(C)=O)ccc3n2C(C)C)CC1`, the survival is inactive: 84%.

Turning to `Cc1cc(C)cc(-n2c(SCC(=O)NCc3ccco3)nc3c([nH]c4ccccc43)c2=O)c1`, the survival is inactive: 73%.

Turning to `COc1ccc(NC(=O)NCCc2c(C)nn(C)c2C)c(OC)c1`, the survival was inactive: 57%.

Consider `Cc1nnc2c(N3CCN(c4ccccc4F)CC3)nc3ccccc3n12`, for which the survival was inactive: 90%.

In the case of `COc1cccc(NC(=O)CSc2nnc(COc3ccc(Cl)cc3)o2)c1`, the survival was inactive: 91%.

As for `Cc1ccc2c(c1)c(=O)c1ccccc1n2CCCC(=O)Nc1ccc(C)c(F)c1`, the survival is inactive: 85%.

For the compound `Cc1cc(-n2c(SCC(=O)NCc3ccccc3)nc3ccsc3c2=O)ccc1Cl`, the survival was inactive: 76%.

`CCOC(=O)c1cc(-c2ccc(C)cc2)n(CCC(=O)Nc2nc3c(C)cccc3s2)c1C`: the survival was inactive: 96%.

Consider `CCc1ccccc1NC(=O)N1CCC(NC(=O)C(C)(C)C)CC1`, for which the survival was inactive: 105%.

For the compound `COc1ccc(NC(=O)c2ccco2)cc1NC(=O)C(C)C`, the survival is inactive: 90%.

As for `Cc1ccc(-n2nc3ccc(NC(=O)c4oc5ccc(C)cc5c4C)cc3n2)cc1`, the survival was inactive: 68%.

Turning to `CCOc1ccc(OCC(=O)NCCS(=O)(=O)N2CCN(c3ccc(F)cc3)CC2)cc1`, the survival is inactive: 67%.

As for `CCc1cccc(C)c1NS(=O)(=O)c1cc(-c2cc(C)no2)ccc1C`, the survival was inactive: 89%.

`COc1ccc(/C=C(\C#N)C(=O)NCc2ccco2)cc1C`: the survival was inactive: 110%.

Take `O=C(CCC1CCCC1)N1CCc2c([nH]c3ccccc23)C1c1ccc(Cl)cc1` (stereo not given): the survival is inactive: 91%.

For the compound `CCN(C(=O)Cn1ncc2c(=O)oc3ccc(C)cc3c21)c1cc(OC)ccc1OC`, the survival is inactive: 86%.

For the compound `N#Cc1cccc(C(c2nnnn2Cc2ccc(F)cc2)N2CCc3ccccc32)c1` (stereo not given), the survival is inactive: 129%.

On to `COc1ccc(NC(=O)N2CCCC2C(=O)Nc2ccccc2)cc1` (stereo not given), for which the survival is inactive: 102%.

With `O=C(Nc1ccccc1F)c1nc(SCc2ccc(F)cc2)ncc1Cl`, the survival is inactive: 89%.

For `CCCOc1ccccc1C(=O)N1CCCCC1CCN1CCOCC1` (stereo not given), the survival was inactive: 89%.

As to `O=c1[nH]c(NCCO)nc2sc3c(c12)CCCC3`, the survival is inactive: 95%.

On to `CCOC(=O)C1CCCN(S(=O)(=O)c2ccc(N3CCCCS3(=O)=O)cc2)C1` (stereo not given), for which the survival is inactive: 66%.

On to `CC1CCc2noc(NC(=O)c3ccccc3[N+](=O)[O-])c2C1` (stereo not given), for which the survival was inactive: 115%.

For the compound `Cc1cc(C(F)F)n2nc(C(=O)Nc3cc(Cl)ccc3C)nc2n1`, the survival was inactive: 83%.

In the case of `C/C(=C\C(=O)c1cccnc1)Nc1ccccc1O`, the survival is inactive: 107%.

Take `CN1CCN(C(=O)c2ccc3c(c2)N(Cc2cccc(Cl)c2)C(=O)c2ccccc2S3(=O)=O)CC1`: the survival is inactive: 68%.

Regarding `CCCN1C(=O)C(O)(CC(=O)c2ccc(OC)c(OC)c2)c2ccccc21` (stereo not given), the survival is inactive: 130%.

Regarding `O=C(Nc1ccc(C(F)(F)F)cc1)c1cc(S(=O)(=O)NC2CCCCC2)ccc1F`, the survival was inactive: 81%.

On to `COc1ccccc1CNC(=O)C1CCN(S(=O)(=O)c2c(C)noc2/C=C/c2c(C)cc(C)cc2C)CC1`, for which the survival was inactive: 85%.

Take `O=C(Nc1ccc2nc(SCCOc3ccccc3)sc2c1)c1cccs1`: the survival is inactive: 92%.

Regarding `CCOc1ccccc1NC(=O)c1sc2nc(C)cc(C)c2c1N`, the survival is inactive: 136%.

Regarding `Cc1coc2c(C)c3oc(=O)c(CC(=O)NCc4ccccc4)c(C)c3cc12`, the survival was inactive: 87%.
